# Among all 420,000 compounds or so, about 64,000 (15%) were called active. The inconclusive results got no clear call from the source; some entries with a clear call stand among them for comparison. The call rests on the fitted dose curve; in most records, active means well fitted inhibition curve with a large enough effect; inconclusive means small, poorly fitted or top-dose-only effect; inactive means flat fitted curve, though single readings scatter. Potencies beside an inconclusive call are fits to weak or partial responses and may not hold up.
# Assay: qHTS for Inhibitors of human tyrosyl-DNA phosphodiesterase 1 (TDP1): qHTS in cells in absence of CPT; further: nearly all actives have a fitted effect of over 55% in size
# Conditions: DT40 Tdp1-/- hTDP1 cells, no CPT, ATP luminescence, 48 h; activity change, negative = growth inhibition: at 46.2 µM (top of the series) unless noted
# Summary of the method: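 Seeded 400 DT40-hTDP1 cells/well (vehicle DMSO, no 20 nM CPT); pinned compounds; ≥48 hr at 37 °C; CellTiter-Glo luminescence as viability measure.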
# On the % scale 0 is the no-effect control and ±100 the full control effect; potency means the concentration at half of the fitted maximal effect; tags describe the fitted curve by direction and shape.
Structure (SMILES),"activity change, negative = growth inhibition",Potency
CC(NC(=O)c1cccc2c1Oc1ccccc1S2)C(=O)O (stereo unspecified),inactive: -14.9%,
Cc1ccc(-c2cc(-c3cccs3)[nH]n2)c(O)c1,,"inconclusive: 23.1 µM [inhibitor, single point]"
O=C(Nc1ccccc1)OCC(CN1CCCCC1)OC(=O)Nc1ccccc1 (stereo unspecified),inconclusive: -31.2% [inhibitor] [at 21.1 µM],
Cc1c(C(=O)OCC(C)C)[nH]c2c1C(=O)CC(c1cccs1)C2 (stereo unspecified),,active: 3.66 µM
Cc1c(C(=O)N2CCC(Cc3ccccc3)CC2)sc2ncnc(NCc3ccccn3)c12,inactive: -29.3%,
CC1=C(C(=O)Nc2cccc(C(=O)NC3CCCC(C)C3C)c2)SCCO1 (stereo unspecified),,"inconclusive: 29.1 µM [inhibitor, single point]"
Cc1cc(Cl)cc(Cl)c1CNc1c([N+](=O)[O-])c(=O)oc2ccccc12,,active: 16.4 µM
O=C(c1cc2n(n1)C(C(F)(F)F)CC(c1ccco1)N2)N1CCN(c2ccccn2)CC1 (stereo unspecified),,active: 25.9 µM
NCCc1nnc(SCc2c(Cl)cccc2Cl)o1,,"inconclusive: 29.1 µM [inhibitor, single point]"
COc1cc(Nc2c3c(nc4ccccc24)CCCC3)cc(OC)c1OC,,"inconclusive: 25.9 µM [inhibitor, single point]"
O=C(COC(=O)/C=C/c1ccccc1)NNC(=O)c1ccc([N+](=O)[O-])cc1,inactive: -1.88%,
Cc1nc(C#N)c(NCc2ccc3c(c2)OCO3)o1,inactive: -29.2%,
COc1cc(/C=C2/NC(=O)N(Cc3ccccc3F)C2=O)ccc1Oc1ccc([N+](=O)[O-])cn1,,"inconclusive: 4.11 µM [inhibitor, full curve]"
O=C(Nc1cccc(-c2cn3ccccc3n2)c1)c1ccccc1,,"inconclusive: 16.4 µM [inhibitor, single point]"
C[C@@H]1CCCCO[C@@H](CN(C)Cc2ccccc2)[C@@H](C)CN([C@H](C)CO)C(=O)c2cc(NC(=O)Nc3cccc4ccccc34)ccc2O1,,active: 20.6 µM
CCn1nc(NS(=O)(=O)c2ccc(NC(C)=O)cc2)c2cc3cc(C)ccc3nc21,inactive: 22.1%,
O=C(N/N=C\c1ccc(Cl)s1)c1ccc(Cn2cccn2)o1,,"inconclusive: 25.9 µM [inhibitor, partial curve, poor fit]"
Cc1ccc2c(c1)c(=O)c(Br)c(C)n2Cc1ccccc1,,"inconclusive: 25.9 µM [inhibitor, partial curve, poor fit]"
O=C(COC(=O)c1ccc(O)cc1)NCC1COc2ccccc2O1 (stereo unspecified),inactive: -12.5%,
O=C(Nc1ccccn1)c1onc2c1CCCC2,inactive: -21.1%,
O=C(NCCc1ccc(Cl)cc1)C1CCN(C(=O)c2sccc2-n2cccc2)CC1,,"inconclusive: 16.4 µM [inhibitor, single point]"
Cc1c(C(=O)N2CCCC2)c(S(=O)(=O)NCCc2ccccc2)c(C)n1C,inactive: 1.82%,
COc1ccc(-c2c(C)nn3c(N4CCC(C(=O)N5CCCCC5)CC4)cc(C)nc23)cc1OC,inactive: -17.1%,
COc1ccc(Cl)cc1NC(=S)N1CCC(c2ccc(C)cc2)C1 (stereo unspecified),,"inconclusive: 14.6 µM [inhibitor, partial curve, poor fit]"

Structure (SMILES),"activity change, negative = growth inhibition",Potency
O=C(Nc1nc2c(s1)CCCC2)c1cccs1,,active: 20.6 µM
O=C(NN=Cc1ccc2c(c1)OCO2)NN=Cc1ccc2c(c1)OCO2,,"inconclusive: 29.1 µM [inhibitor, single point]"
Cc1ccc(S(=O)(=O)N(C)c2ccc(OC(=O)c3cc(=O)[nH]c4ccccc34)cc2)cc1,,"inconclusive: 8.2 µM [inhibitor, partial curve]"
C#CCOCCOCCOCCNc1nc(N2CCN(C(=O)CCCCCCCCCCNC(=O)Cn3cc(CCCCCN)nn3)CC2)nc(N2CCN(C(=O)CCCCCCCCCCNC(=O)[C@H](CO)n3cc(CCCCCN)nn3)CC2)n1,,"inconclusive: 29.1 µM [inhibitor, single point]"
CCc1ccccc1NC(=O)N1CCC2(CC1)Oc1ccccc1C(=O)N2Cc1ccccc1F,,"inconclusive: 18.4 µM [inhibitor, single point]"
CCCC(C(=O)NC1CCCC1)N(C(=O)c1snc(C(N)=O)c1N)c1ccc(OCC)cc1 (stereo unspecified),,active: 20.6 µM
CCN1CCN(c2ccc(S(=O)(=O)N3CCCCC3)cc2NC(=O)/C=C/c2ccc(Cl)cc2)CC1,,"inconclusive: 23.1 µM [inhibitor, single point]"
CCCC(CCC)C(=O)Nc1cccc(-c2nc3cccnc3s2)c1,inactive: -1.57%,
CC(C)(C)C1CCC(OC(=O)C[N+]2(C)CCCCC2)CC1 (stereo unspecified),,active: 10.3 µM
COc1ccc(OC)c(NC(=O)c2ccc(-c3cccs3)cc2)c1,,"inconclusive: 20.6 µM [inhibitor, partial curve]"
CCn1c(SCC(=O)c2cc(C)n(CC3CCCO3)c2C)nc2ccccc21 (stereo unspecified),,"inconclusive: 22.4 µM [inhibitor, partial curve, poor fit]"
COc1cc(S(=O)(=O)N2CCOCC2)cc(C(=O)OCC(=O)NCc2ccco2)c1OC,inactive: 0.766%,
COc1ccc(Cl)cc1NC(=O)CCN1CCOCC1,inactive: -5.12%,
CSc1sc(-c2ccnc(SCCS(C)(=O)=O)n2)c(-c2ccccc2)c1C#N,,active: 18.4 µM
O=C(Nc1c(Cl)ccc2nsnc12)c1ccc(Br)o1,inactive: -27.1%,
CCOc1ccc(Oc2ccccc2NC(=O)CN2C(=O)NC3(CCCC3)C2=O)cc1,,"inconclusive: 23.1 µM [inhibitor, single point]"
CCn1cc(CNC(=O)CCc2nnc(CCC3CCCCC3)o2)cn1,inconclusive: -35% [inhibitor],
CC(C)(C)NC(=O)CSc1nc2ccccc2n1-c1ccccc1,,"inconclusive: 11.6 µM [inhibitor, partial curve]"
CC(=O)Oc1cc2c(C(=O)NCCCN3CCOCC3)c(C)oc2c2ccccc12,,active: 20.6 µM
Cc1cccc(C(=O)NNC(=O)CCCCC(=O)NNC(=O)c2cccc(C)c2)c1,inactive: -13.8%,
CCCC(=O)N1CCCC(C(=O)c2ccc(OC)c(OC)c2)C1 (stereo unspecified),inactive: 3.32%,
COc1ccc(CCN2C(=O)N(c3ccc(F)cc3)C(=O)C2CC(=O)Nc2ccc(OC)cc2)cc1 (stereo unspecified),,"inconclusive: 14.6 µM [inhibitor, partial curve, poor fit]"
CCOC(=O)c1[nH]c2ccc(OC)cc2c1NC(=O)OC,inactive: -7.22%,
O=C(NCC1CCCCC1)c1cccc(S(=O)(=O)N2CCCC2)c1,,"inconclusive: 29.1 µM [inhibitor, single point]"

Structure (SMILES),"activity change, negative = growth inhibition",Potency
NS(=O)(=O)c1ccc2c(c1)C(=NO)c1cc(S(N)(=O)=O)ccc1-2,inactive: -8.97%,
Cc1ccc(CNC(=O)CCNC(=O)N2CCn3c2nc2ccccc23)cc1,,"inconclusive: 29.1 µM [inhibitor, single point]"
COc1ccc(CNC(=O)CC(NC(N)=O)c2ccccc2Cl)cc1OC (stereo unspecified),,"inconclusive: 20.6 µM [inhibitor, partial curve]"
CC(C)C(NC(=O)CNC(=O)OC(C)(C)C)C(=O)NCc1ccccc1 (stereo unspecified),inactive: -2.87%,
CCN(c1ccccc1)S(=O)(=O)c1ccc(Cl)c(NC(=O)CNC(C)c2ccccc2)c1 (stereo unspecified),,"inconclusive: 29.1 µM [inhibitor, single point]"
Cc1cccc(-c2sc(Nc3ccccc3)n[n+]2-c2ccccc2)c1,,"inconclusive: 20.6 µM [inhibitor, partial curve, poor fit]"
CCC/C=C/c1ccc(CN2C(C)C(=O)N(Cc3cn(Cc4ccco4)nn3)CCS2(=O)=O)cc1 (stereo unspecified),,"inconclusive: 20.6 µM [inhibitor, partial curve, poor fit]"
O=c1[nH]nc(CNc2ccc(O)cc2)c2ccccc12,,active: 20.6 µM
CC(=C\C(=O)O)/C(=C/c1ccc(C)o1)C(=O)O,,active: 20.6 µM
COc1ccc(C(=O)N/C(=C\c2cn(S(=O)(=O)N(C)C)c3ccccc23)C(=O)N2CCN(C)CC2)cc1OC,,"inconclusive: 29.1 µM [inhibitor, single point]"
CC(C)CCNC(=O)c1csc2c1CCCCC2,,"inconclusive: 29.1 µM [inhibitor, single point]"
Oc1ccccc1C1CC(c2cccs2)=NC(c2ccc(Cl)cc2)N1 (stereo unspecified),,active: 4.11 µM
C[C@@H]1CN([C@@H](C)CO)C(=O)CCCn2nncc2CO[C@@H]1CN(C)C(=O)Nc1ccc(C(C)(C)C)cc1,inactive: -18.8%,
N[C@](CC1c2ccccc2Oc2ccccc21)(C(=O)O)[C@@H]1C[C@@H]1C(=O)O,inactive: -3.77%,
Cc1cc(=O)[nH]c(SCc2cccc3ccccc23)n1,inactive: -25.5%,
C=CCn1c(COc2ccc3c(c2)CCCC3)nnc1SCC(=O)Nc1cccc(SC)c1,inconclusive: -32.9% [inhibitor],
CC(C)OC(=O)CSc1nc(N)c(C#N)c(-c2ccco2)c1C#N,,"inconclusive: 4.61 µM [inhibitor, partial curve]"
Cn1c(/C(C#N)=C/C2CC=CCC2)nc2ccccc21 (stereo unspecified),,"inconclusive: 16.4 µM [inhibitor, single point]"
CC(C)(C)c1cc(C(C)(C)C)c2oc(=O)c(-c3nc4ccc(C(=O)O)cc4[nH]3)cc2c1,,"inconclusive: 13 µM [inhibitor, single point]"
CCN(CC)c1ccc(/C=N/NC(=O)c2cnccn2)cc1,,active: 1.64 µM
O=C(CSc1c(Cl)cccc1Cl)NC1CCCc2ccccc21 (stereo unspecified),,"inconclusive: 23.1 µM [inhibitor, partial curve]"
COc1ccc(NC(=O)CSc2nc(N)cc(=O)[nH]2)cc1S(=O)(=O)N1CCCCC1,,"inconclusive: 23.1 µM [inhibitor, single point]"
CCCNC(=O)[C@H]1N2C(=O)c3c(ccc(OC)c3OC)C2SC1(C)C (stereo partly specified),inactive: -25.2%,

# From PubChem BioAssay AID686978 (National Center for Advancing Translational Sciences (NCATS), 2013)
